Source: PubChem BioAssay AID588342 (National Center for Advancing Translational Sciences (NCATS), 2011)
About 25,000 (6.9%) of roughly 360,000 compounds were called active. The inconclusive results got no clear call from the source; some entries with a clear call stand among them for comparison. Calls follow the shape of the dose curve; as a rule, active = well fitted inhibition curve with a large enough effect; inconclusive = small, poorly fitted or top-dose-only effect; inactive = flat fitted curve, though single readings scatter. Potencies of inconclusive entries are doubtful fits and often do not repeat.
Also: nearly all actives have a fitted effect of over 55% in size.
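For activity change, negative = inhibition in this document: plate controls were vehicle for no effect and reference inhibitor for full effect.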
Potency is read from the fitted curve at half-maximal effect; tags tell the direction and shape of the fitted curve.

What follows are compounds tested against Luciferin 4-monooxygenase (Photinus pyralis) (UniProt P08659) (assay: qHTS profiling assay for firefly luciferase inhibitor/activator using purifed enzyme and Km concentrations of substrates (counterscreen for miR-21 project)). Details: purified FLuc, luminescence inhibition; series mostly up to 57.5 µM; activity change, negative = inhibition: at the top concentration.
Sequence of UniProt P08659 (P08659 whole entry, looked up): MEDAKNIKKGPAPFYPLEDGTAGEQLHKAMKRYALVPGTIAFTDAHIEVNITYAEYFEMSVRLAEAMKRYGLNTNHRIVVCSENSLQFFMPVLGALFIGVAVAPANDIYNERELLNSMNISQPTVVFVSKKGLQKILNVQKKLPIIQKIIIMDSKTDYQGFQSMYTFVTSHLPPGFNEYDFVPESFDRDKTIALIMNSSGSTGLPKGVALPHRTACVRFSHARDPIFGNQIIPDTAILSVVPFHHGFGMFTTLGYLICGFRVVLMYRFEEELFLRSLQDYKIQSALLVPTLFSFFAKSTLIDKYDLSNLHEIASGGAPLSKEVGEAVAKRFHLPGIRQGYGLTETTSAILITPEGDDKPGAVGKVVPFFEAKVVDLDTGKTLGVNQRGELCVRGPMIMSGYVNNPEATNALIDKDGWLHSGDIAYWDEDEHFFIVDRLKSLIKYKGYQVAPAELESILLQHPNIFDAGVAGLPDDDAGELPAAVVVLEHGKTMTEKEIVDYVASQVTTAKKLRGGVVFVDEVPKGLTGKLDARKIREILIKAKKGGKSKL
Method in brief: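 Biochemical qHTS of compounds, final roughly 60 µM downward over six points, against 10 nM purified firefly luciferase using Km concentrations of substrates (10 uM D-luciferin, 10 uM ATP) in Tris acetate pH 7.5 buffer; luminescence output.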
With C/C(=N\Nc1ncc(Cl)cc1Cl)c1ccc(N2CCOCC2)cc1 the Potency was inconclusive: 26.9 µM [inhibitor, partial curve, poor fit].
For FC(F)(F)c1cc(Nc2nc3ccccc3c3nncn23)ccc1Cl, the “activity change, negative = inhibition” value was inactive: -11.9%.
In the case of COc1ccc(C2=NOC(C(=O)NCc3cccs3)C2)cc1 (stereo not given), the Potency is reported as inconclusive: 37.9 µM [inhibitor, single point].
For CC(Sc1nc2ccccc2s1)C(=O)Nc1ccc2c(c1)OCO2 (stereo not given), the Potency was inconclusive: 21.3 µM [inhibitor, partial curve, poor fit].
In the case of COc1ccc(NC(=O)c2ccco2)cc1NC(=O)c1ccc(C#N)cc1F, the Potency is reported as “inactive”.
CCCN1CCN(C(=O)Nc2ccc(C(=O)OCC)cc2)CC1 was tested, and the Potency was inconclusive: 21.3 µM [inhibitor, single point].
COc1cc(C2=NOC(C(=O)Nc3cc(C)on3)C2)cc(OC)c1OC (stereo not given) was tested, and the “activity change, negative = inhibition” value was inactive: 2.03%.
CCOC(=O)C1(Cc2cccc(Cl)c2)CCCN(C(=O)c2ccnn2C)C1 (stereo not given) was tested, and the Potency was inconclusive: 21.3 µM [inhibitor, partial curve].
For S=c1[nH]ncn1/N=C/c1cccc(Oc2ccccc2)c1, the Potency was inconclusive: 37.9 µM [inhibitor, single point].
COc1cc2c(cc1OC)CN(C(=O)C(CCSC)NS(=O)(=O)c1ccc(C)cc1)CC2 (stereo not given) was tested, and the “activity change, negative = inhibition” value was inactive: -2.33%.
With COc1ccccc1-c1cc(C(=O)N2CCN(c3ccc(F)cc3)CC2)no1 the “activity change, negative = inhibition” value was inactive: -16.9%.
For Cc1ccc(SSc2cc(C)ccc2N)c(N)c1, the Potency was active: 4.78 µM.
Nc1ccccc1Oc1ccc2ccccc2c1 was tested, and the Potency was inconclusive: 23.9 µM [inhibitor, partial curve, poor fit].
With Cc1ccc(NC(=S)NC2CC3CCCC(C2)N3Cc2ccco2)cc1 (stereo not given) the Potency was inconclusive: 0.012 µM [inhibitor, partial curve, poor fit].
COc1ccc(Cl)cc1NC(=O)CSc1nc2c(oc3ccccc32)c(=O)n1Cc1ccco1 was tested, and the “activity change, negative = inhibition” value was inactive: -6.68%.
For COc1ccc(C(=O)Nc2ccc(N3CCCCCC3)cc2)cc1S(=O)(=O)N1CCOCC1, the Potency was inconclusive: 21.3 µM [inhibitor, partial curve, poor fit].
For Cc1cc2nnc(SCC(=O)OC(C)C)n2c2ccccc12, the Potency was inconclusive: 26.9 µM [inhibitor, partial curve].
Cc1ccc(C(=O)Nc2ccc(C(=O)O)cc2)cc1S(=O)(=O)N1CCC(C)CC1 was tested, and the Potency was inconclusive: 21.3 µM [inhibitor, partial curve, poor fit].
With N=c1c2c3c(sc2nc2n1CCCCC2)CCCC3 the Potency was inconclusive: 19 µM [inhibitor, partial curve, poor fit].
CC1(C)CC(=O)C(C=Nc2ccc3cn[nH]c3c2)=C(O)C1 was tested, and the Potency was inconclusive: 16.9 µM [inhibitor, partial curve].
With CCCCOc1ccc(C(=O)NCc2cn3cccc(C)c3n2)cc1 the “activity change, negative = inhibition” value was inactive: -1.11%.
C/C(=N\N1CCCCC1)c1ccccc1O was tested, and the Potency was inconclusive: 37.9 µM [inhibitor, single point].
CCOc1cc2c(cc1OCC)C(CC(=O)O)N(C(=O)Nc1ccc(Br)c(C)c1)CC2 (stereo not given) was tested, and the Potency was inconclusive: 10.7 µM [inhibitor, partial curve].
With CCCCOc1ccc(C(=O)NCCc2sc3nc(-c4ccc(OC)cc4)nn3c2C)cc1 the Potency was inconclusive: 6.01 µM [inhibitor, partial curve, poor fit].
CC1CC(=O)N(c2ccc(NCCc3ccccc3)c([N+](=O)[O-])c2)C1=O (stereo not given) was tested, and the Potency was inconclusive: 33.8 µM [inhibitor, partial curve, poor fit].
CCc1nnc(NC(=O)CSc2ccc(-c3ccc(F)cc3)nn2)s1 was tested, and the Potency was active: 10.7 µM.
For Cc1ccc(NC(=O)/C=C/c2ccco2)cc1F, the Potency was active: 5.36 µM.
With Oc1ccc2nc(Cc3ccccc3)[nH]c2c1 the Potency was inconclusive: 37.9 µM [inhibitor, partial curve, poor fit].
In the case of COc1cccc(C(=O)NC(Cc2ccccc2)c2ccc3c(c2)OCCCO3)c1 (stereo not given), the “activity change, negative = inhibition” value is reported as inactive: -1.33%.
In the case of CCN(CC)c1nn2c(=O)c(C(=O)NCCc3ccccc3C)cnc2s1, the “activity change, negative = inhibition” value is reported as inactive: -13%.
With O=C(Nc1cc2c3c(c1)CC(=O)N3CCC2)c1ccc(Cl)cc1 the Potency was active: 15.1 µM.
With CCN(CC)CCCC(C)NC(=O)c1cccc(S(=O)(=O)N2CCc3ccccc32)c1 (stereo not given) the “activity change, negative = inhibition” value was inactive: -0.588%.
For COc1ccccc1-c1cc(C(=O)N2CCCc3ccccc32)no1, the Potency was inconclusive: 21.3 µM [inhibitor, single point].
With CC1CCc2c(sc3nc(CSc4nnnn4C)[nH]c(=O)c23)C1 (stereo not given) the Potency was inconclusive: 30.1 µM [inhibitor, partial curve, poor fit].
In the case of Cc1c(C(=O)Nc2ccc(Oc3ccccc3)cc2)sc2nc3n(c(=O)c12)CCC3, the Potency is reported as inconclusive: 21.3 µM [inhibitor, single point].
With CCCCc1nc2cc(C(=O)NC(C)c3cnn(C)c3)ccc2o1 (stereo not given) the Potency was inconclusive: 26.9 µM [inhibitor, partial curve].
In the case of COc1ccc2cc(/C=C/C(=O)c3ccco3)c(Cl)nc2c1, the Potency is reported as inconclusive: 19 µM [inhibitor, partial curve].
For CCOc1ccc(CCNC(=O)c2ccc(C)c(NC3=NC4CS(=O)(=O)CC4S3)c2)cc1 (stereo not given), the Potency was inconclusive: 37.9 µM [inhibitor, partial curve, poor fit].
CC(C)Sc1nc2ccc(Br)cc2[nH]1 was tested, and the Potency was active: 16.9 µM.
In the case of CN(C)C=NC1=NN(c2cccc(C(F)(F)F)c2)CC1, the Potency is reported as inconclusive: 19 µM [inhibitor, partial curve].
For Nc1ccc(C(=O)Nc2nccs2)cc1, the Potency was inconclusive: 23.9 µM [inhibitor, partial curve].
In the case of O=C(c1ccsc1)N1CCCC(N2CCOCC2)C1 (stereo not given), the “activity change, negative = inhibition” value is reported as inactive: 2.08%.
For COc1cc2c(cc1NC(=O)c1ccncc1)oc1ccccc12, the Potency was inconclusive: 30.1 µM [inhibitor, single point].
In the case of CCOC(=O)c1nc(NCc2ccccc2)c2ccccc2n1, the Potency is reported as inconclusive: 37.9 µM [inhibitor, partial curve, poor fit].
For COC(=O)c1ccc(CSc2nc3sc(C(=O)O)c(C)c3c(=O)[nH]2)cc1, the Potency was inconclusive: 37.9 µM [inhibitor, partial curve, poor fit].
